From patent US20170307628A1 (EIDGENOESSISCHE TECHNISCHE HOCHSCHULE ZURICH, published 2017)

Key:
human serum albumin = molecular target: T1, human serum albumin (human, UniProt P02768); assay: lysate ELISA
T1 construct: also called HSA

EGFR on cells = molecular target: T2, EGFR on cells (UniProt P00533); assay: FACS MDA-MB-468 cells, lysate
T2 construct: whole, on cells; also called epidermal growth factor receptor

mouse serum albumin = molecular target: T3, mouse serum albumin (mouse, UniProt P07724 25-608); assay: lysate ELISA and/or Biacore
T3 construct: also called MSA

Chain of mouse serum albumin (P07724 25-608 limits assumed): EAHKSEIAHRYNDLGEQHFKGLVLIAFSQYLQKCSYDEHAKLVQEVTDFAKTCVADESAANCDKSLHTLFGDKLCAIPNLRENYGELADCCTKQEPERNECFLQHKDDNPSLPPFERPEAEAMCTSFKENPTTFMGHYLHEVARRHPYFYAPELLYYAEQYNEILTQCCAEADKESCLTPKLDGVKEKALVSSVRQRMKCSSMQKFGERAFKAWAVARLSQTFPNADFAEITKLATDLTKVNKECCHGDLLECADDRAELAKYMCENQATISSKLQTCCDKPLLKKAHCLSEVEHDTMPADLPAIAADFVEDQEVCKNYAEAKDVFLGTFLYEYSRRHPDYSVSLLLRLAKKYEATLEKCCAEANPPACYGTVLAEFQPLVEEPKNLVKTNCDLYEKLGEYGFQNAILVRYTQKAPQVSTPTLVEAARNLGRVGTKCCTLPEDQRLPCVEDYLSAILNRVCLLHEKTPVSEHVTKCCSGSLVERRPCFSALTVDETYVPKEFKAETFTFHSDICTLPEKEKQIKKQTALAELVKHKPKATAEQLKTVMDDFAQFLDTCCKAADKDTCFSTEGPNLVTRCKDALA

Row | binding result (human serum albumin) | binding result (EGFR on cells) | binding result (mouse serum albumin) | Binder
1 | binds | – | – | SEQ ID NO 375 (designed binder, myc-His tagged) GVTLFVALYDYQSRHGFDLSFHKGEKFQILDAMLRFGDWWEARSLTTGETGYIPSNYVAPVDSI
2 | – | binds | – | SEQ ID NO 417 (designed binder, myc-His tagged) GVTLFVALYDYEARGLNRMFDLSFHKGEKFQILTRETGDWWEARSLTTGETGYIPSNYVAPVDSIQ
3 | – | binds | – | SEQ ID NO 413 (designed binder, myc-His tagged) GVTLFVALYDYEARGLNRMFDLSFHKGEKFQILAFETGDWWEARSLTTGETGYIPSNYVAPVDSIQ
4 | – | binds | – | SEQ ID NO 411 (designed binder, myc-His tagged) GVTLFVAVYDYEARGLNRMFDLSFHKGEKFQILNRESEDWWEARSLTTGETGYIPSNYVAPVDSIQ
5 | – | binds | – | ER9L3D7 (designed binder, myc-His tagged) GVTLFVALYDYEARGLNRMFDLSFHKGEKFQILSTENGDWWEARSLTTGETGYIPSNYVAPVDSIQ
6 | – | binds | – | ER7L2D6 (designed binder, myc-His tagged) GVTLFVALYDYEARGLNRMFDLSFHKGEKFQILSFETGDWWEARSLTTGETGYIPSNYVAPVDSIQ
7 | – | binds | – | SEQ ID NO 412 (designed binder, myc-His tagged) GVTLFVALYDYEARGLNRMFDLSFHKGEKFQILQFETGDWWEARSLTTGETGYIPSNYVAPVDSIQ
8 | binds | – | binds | SEQ ID NO 342 (designed binder, myc-His tagged) GVTLFVALYDYVSNTGFDLSFHKGEKFQILQNLWTGDWWEARSLTTGETGYIPSNYVAPVDSIQ
9 | binds | – | – | SEQ ID NO 376 (designed binder, myc-His tagged) GVTLFVALYDYHAHLGYDLSFHKGEKFQILDSLRFGDWWEARSLTTGETGYIPSNYVAPVDSIQ
10 | binds | – | binds | SEQ ID NO 356 (designed binder, myc-His tagged) GVTLFVALYDYQSKHGYDLSFHKGEKFQILQDLWTGDWWEARSLTTGETGYIPSNYVAPVDSIQ
11 | binds | – | binds | SEQ ID NO 365 (designed binder, myc-His tagged) GVTLFVALYDYTAVHGYDLSFHKGEKFQILQNLWTGDWWEARSLTTGETGYIPSNYVAPVDSIQ
12 | binds | – | binds | SEQ ID NO 359 (designed binder, myc-His tagged) GVTLFVALYDYERQHGFDLSFHKGEKFQILQNLWTGDWWEARSLTTGETGYIPSNYVAPVDSIQ
13 | binds | – | binds | SEQ ID NO 347 (designed binder, myc-His tagged) GVTLFVALYDYQSRHGFDLSFHKGEKFQILQNLWTGSWWEARSLTTGETGYIPSNYVAPVDSIQ
14 | binds | – | binds | SEQ ID NO 358 (designed binder, myc-His tagged) GVTLFVALYDYTLRQWKDLSFHKGEKFQILQNLWTGDWWEARSLTTGETGYIPSNYVAPVDSIQ
15 | binds | – | binds | SEQ ID NO 364 (designed binder, myc-His tagged) GVTLFVALYDYEAHLGYDLSFHKGEKFQILQNLWTGDWWEARSLTTGETGYIPSNYVAPVDSIQ
16 | binds | – | binds | SEQ ID NO 362 (designed binder, myc-His tagged) GVTLFVALYDYLLQWRQDLSFHKGEKFQILQDLWTGDWWEARSLTTGETGYIPSNYVAPVDSIQ
17 | binds | – | binds | SEQ ID NO 350 (designed binder, myc-His tagged) GVTLFVALYDYRSSYEWDLSFHKGEKFQILQNLWTGDWWEARSLTTGETGYIPSNYVAPVDSIQ
18 | binds | – | binds | SEQ ID NO 353 (designed binder, myc-His tagged) GVTLFVALYDYGNFRWRDLSFHKGEKFQILQNLWTGDWWEARSLTTGETGYIPSNYVAPVDSIQ
19 | binds | – | binds | SEQ ID NO 344 (designed binder, myc-His tagged) GVTLFVALYDYLRRNSPDLSFHKGEKFQILQNLWTGDWWEARSLTTGETGYIPSNYVAPVDSIQ
20 | binds | – | – | SEQ ID NO 373 (designed binder, myc-His tagged) GVTLFVALYDYQSRHGFDLSFHKGEKFQILDWLRFGDWWEARSLTTGETGYIPSNYVAPVDSIQ
21 | binds | – | – | SEQ ID NO 369 (designed binder, myc-His tagged) GVTLFVALYDYTARTGYDLSFHKGEKFQILDAVRFGDWWEARSLTTGETGYIPSNYVAPVDSIQ

Row | binding result (human serum albumin) | binding result (EGFR on cells) | binding result (mouse serum albumin) | Binder
22 | binds | – | binds | SEQ ID NO 360 (designed binder, myc-His tagged) GVTLFVALYDYESRHGYDLSFHKGEKFQILQNLWTGDWWEARSLTTGETGYIPSNYVAPVDSIQ
23 | binds | – | binds | SEQ ID NO 354 (designed binder, myc-His tagged) GVTLFVALYDYQSRHGFDLSFHKGEKFQILQNLWTGWGWVARSLTTGLSGYIPSNYVAPVDSIQ
24 | binds | – | – | SEQ ID NO 372 (designed binder, myc-His tagged) GVTLFVALYDYHAHLGYDLSFHKGEKFQILDDLRFGDWWEARSLTTGETGYIPSNYVAPVDSIQ
25 | binds | – | binds | SEQ ID NO 366 (designed binder, myc-His tagged) GVTLFVALYDYLTKQLPDRSFHKGEKFQILQNLWTGDWWEARSLTTGETGYIPSNYVAPVDSIQ
26 | binds | – | binds | SEQ ID NO 352 (designed binder, myc-His tagged) GVTLFVALYDYHAHLGYDLSFHKGEKFQILQNLWTGDWWEARSLTTGETGYIPSNYVAPVDSIQ
27 | binds | – | binds | SEQ ID NO 348 (designed binder, myc-His tagged) GVTLFVALYDYQSRHGFDLSFHKGEKFQILQNLWTGKWWEARSLTTGETGYIPSNYVAPVDSIQ
28 | binds | – | binds | SEQ ID NO 345 (designed binder, myc-His tagged) GVTLFVALYDYHAHLGYDLSFHKGEKFQILQDLWTGALWRARSLTTGRMGSIPSNYVAPVDSIQ
29 | binds | – | binds | SEQ ID NO 355 (designed binder, myc-His tagged) GVTLFVALYDYTSMRGYDLSFHKGEKFQILQDLWTGDWWEARSLTTGETGYIPSNYVAPVDSIQ
30 | binds | – | binds | SEQ ID NO 367 (designed binder, myc-His tagged) GVTLFVALYDYMSQMGYDLSFHKGEKFQILQNLWTGDWWEARSLTTGETGYIPSNYVAPVDSIQ
31 | binds | – | – | SEQ ID NO 374 (designed binder, myc-His tagged) GVTLFVALYDYQSRHGFDLSFHKGEKFQILDAIRFGDRWEARSLTTGETGYIPSNYVAPVDSIQ
32 | binds | – | – | SEQ ID NO 371 (designed binder, myc-His tagged) GVTLFVALYDYQSRHGFDLSFHKGEKFQILDNLRFGDWWEARSLTTGETGYIPSNYVAPVDSIQ
33 | binds | – | binds | SEQ ID NO 343 (designed binder, myc-His tagged) GVTLFVALYDYTASYGYDLSFHKGEKFQILDDIWTGDWWEARSLTTGETGYIPSNYVAPVDSIQ
34 | binds | – | binds | SEQ ID NO 346 (designed binder, myc-His tagged) GVTLFVALYDYQSRHGFDLSFHKGEKFQILQNLWTGEWWEARSLTTGETGYIPSNYVAPVDSIQ
35 | binds | – | binds | SEQ ID NO 363 (designed binder, myc-His tagged) GVTLFVALYDYTSSHGFDLSFHKGEKFQILQDLWTGDWWEVRSLTTGETGYIPSNYVAPVDSIQ
36 | binds | – | binds | SEQ ID NO 357 (designed binder, myc-His tagged) GVTLFVALYDYLMKTLADLSFHKGEKFQILQDLWTGDWWEARSLTTGETGYIPSNYVAPVDSIQ
37 | binds | – | binds | SEQ ID NO 349 (designed binder, myc-His tagged) GVTLFVALYDYEKQHAWDLSFHKGEKFQILQNLWTGDWWEARSLTTGETGYIPSNYVAPVDSIQ
38 | binds | – | – | SEQ ID NO 370 (designed binder, myc-His tagged) GVTLFVALYDYQSREKFDLSFHKGEKFQILDQLRFGDWWEARSLTTGETGYIPSNYVAPVDSIQ
39 | binds | – | binds | SEQ ID NO 351 (designed binder, myc-His tagged) GVTLFVALYDYQSRHGFDLSFHKGEKFQILQNLWTGNWWEARSLTTGETGYIPSNYVAPVDSIQ
40 | binds | – | binds | SEQ ID NO 361 (designed binder, myc-His tagged) GVTLFVALYDYQSKQGFDLSFHKGEKFQILQNLWTGDWWEARSLTTGETGYIPSNYVAPVDSIQ
41 | binds | – | binds | SEQ ID NO 368 (designed binder, myc-His tagged) GVTLFVALYDYQASHGYDLSFHKGEKFQILQNLWTGDWWEARSLTTGETGYIPSNYVAPVDSIQ
